Source: the supplement of paper PMC8728848
The other results are listed elsewhere or left out.

Key:
Test in all cases: glycan array binding signal (z-score within array); higher = stronger binding
Details in all cases: glycan notation: IUPAC condensed, linker removed
[1] = molecular target: Neu5Ac(a2-3)Gal(b1-3)[Fuc(a1-4)]GlcNAc(b1-3)Gal(b1-4)[Fuc(a1-3)]GlcNAc
In short: (§1)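 The Consortium for Functional Glycomics database supplied 3228 glycan arrays, of which those lacking an available protein sequence were dropped. The binding signal, a within-array Z-score, was averaged across arrays of the same protein sequence and across linkers. Negative scores can be read as non-binding.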

[2] = molecular target: Neu5Ac(a2-3)Gal(b1-3)[Neu5Ac(a2-3)Gal(b1-4)]GlcNAc
In short: as §1

[3] = molecular target: Neu5Ac(a2-3)Gal(b1-3)[Neu5Ac(a2-6)]GalNAc
In short: as §1

[4] = molecular target: Neu5Ac(a2-3)Gal(b1-3)[Neu5Ac(a2-6)]GlcNAc(b1-3)[Fuc(a1-3)[Gal(b1-4)]GlcNAc(b1-6)]Gal(b1-4)Glc
In short: as §1

Neu5Ac(a2-3)Gal(b1-4)Glc = molecular target: Neu5Ac(a2-3)Gal(b1-4)Glc
In short: as §1

[5] = molecular target: Neu5Ac(a2-3)Gal(b1-4)GlcNAc
In short: as §1

[6] = molecular target: Neu5Ac(a2-3)Gal(b1-4)GlcNAc(b1-2)Man
In short: as §1

[7] = molecular target: Neu5Ac(a2-3)Gal(b1-4)GlcNAc(b1-2)Man(a1-3)[GlcNAc(b1-2)Man(b1-4)GlcNAc(b1-2)Man(a1-6)]Man(b1-4)GlcNAc(b1-4)GlcNAc
In short: as §1

[8] = molecular target: Neu5Ac(a2-3)Gal(b1-4)GlcNAc(b1-2)Man(a1-3)[Neu5Ac(a2-3)Gal(b1-4)GlcNAc(b1-2)Man(a1-6)]Man(b1-4)GlcNAc(b1-4)[Fuc(a1-6)]GlcNAc
In short: as §1

[9] = molecular target: Neu5Ac(a2-3)Gal(b1-4)GlcNAc(b1-2)Man(a1-3)[Neu5Ac(a2-6)Gal(b1-4)GlcNAc(b1-2)Man(a1-6)]Man(b1-4)GlcNAc(b1-4)GlcNAc
In short: as §1

[10] = molecular target: Neu5Ac(a2-3)Gal(b1-4)GlcNAc(b1-2)[Neu5Ac(a2-3)Gal(b1-4)GlcNAc(b1-6)]Man(a1-6)[Neu5Ac(a2-3)Gal(b1-4)GlcNAc(b1-2)Man(a1-3)]Man(b1-4)GlcNAc(b1-4)GlcNAc
In short: as §1

[11] = molecular target: Neu5Ac(a2-3)Gal(b1-4)GlcNAc(b1-3)Gal
In short: as §1

[12] = molecular target: Neu5Ac(a2-3)Gal(b1-4)GlcNAc(b1-3)Gal(b1-3)GlcNAc
In short: as §1

[13] = molecular target: Neu5Ac(a2-3)Gal(b1-4)GlcNAc(b1-3)Gal(b1-4)GlcNAc
In short: as §1

[14] = molecular target: Neu5Ac(a2-3)Gal(b1-4)GlcNAc(b1-3)Gal(b1-4)GlcNAc(b1-3)Gal(b1-4)GlcNAc
In short: as §1

[15] = molecular target: Neu5Ac(a2-3)Gal(b1-4)GlcNAc(b1-3)Gal(b1-4)[Fuc(a1-3)]GlcNAc
In short: as §1

[16] = molecular target: Neu5Ac(a2-3)Gal(b1-4)GlcNAc(b1-3)GalNAc
In short: as §1

[17] = molecular target: Neu5Ac(a2-3)Gal(b1-4)GlcNAc(b1-3)[Neu5Ac(a2-3)Gal(b1-4)GlcNAc(b1-6)]GalNAc
In short: as §1

[18] = molecular target: Neu5Ac(a2-3)Gal(b1-4)GlcNAc(b1-6)GalNAc
In short: as §1

[19] = molecular target: Neu5Ac(a2-3)Gal(b1-4)GlcNAc(b1-6)[Gal(b1-3)]GalNAc
In short: as §1

[20] = molecular target: Neu5Ac(a2-3)Gal(b1-4)GlcNAc(b1-6)[Neu5Ac(a2-3)Gal(b1-3)]GalNAc
In short: as §1

[21] = molecular target: Neu5Ac(a2-3)Gal(b1-4)GlcNAc6S
In short: as §1

[22] = molecular target: Neu5Ac(a2-3)Gal(b1-4)[Fuc(a1-3)]GlcNAc
In short: as §1

[23] = molecular target: Neu5Ac(a2-3)Gal(b1-4)[Fuc(a1-3)]GlcNAc(b1-3)Gal
In short: as §1

[24] = molecular target: Neu5Ac(a2-3)Gal(b1-4)[Fuc(a1-3)]GlcNAc(b1-3)Gal(b1-4)GlcNAc
In short: as §1

[25] = molecular target: Neu5Ac(a2-3)Gal(b1-4)[Fuc(a1-3)]GlcNAc(b1-3)Gal(b1-4)[Fuc(a1-3)]GlcNAc(b1-3)Gal(b1-4)[Fuc(a1-3)]GlcNAc
In short: as §1

[26] = molecular target: Neu5Ac(a2-3)Gal(b1-4)[Fuc(a1-3)]GlcNAc(b1-3)GalNAc
In short: as §1

[27] = molecular target: Neu5Ac(a2-3)Gal(b1-4)[Fuc(a1-3)]GlcNAc(b1-6)[Gal(b1-3)]GalNAc
In short: as §1

[28] = molecular target: Neu5Ac(a2-3)Gal(b1-4)[Fuc(a1-3)]GlcNAc(b1-6)[Neu5Ac(a2-3)Gal(b1-3)]GalNAc
In short: as §1

[29] = molecular target: Neu5Ac(a2-3)Gal(b1-4)[Fuc(a1-3)]GlcNAc6S
In short: as §1

[30] = molecular target: Neu5Ac(a2-3)Gal6S(b1-4)GlcNAc
In short: as §1

[31] = molecular target: Neu5Ac(a2-3)Gal6S(b1-4)[Fuc(a1-3)]GlcNAc
In short: as §1

Neu5Ac(a2-3)GalNAc = molecular target: Neu5Ac(a2-3)GalNAc
In short: as §1

[32] = molecular target: Neu5Ac(a2-3)GalNAc(b1-4)GlcNAc
In short: as §1

[33] = molecular target: Neu5Ac(a2-3)[GalNAc(b1-4)]Gal(b1-4)Glc
In short: as §1

[34] = molecular target: Neu5Ac(a2-3)[GalNAc(b1-4)]Gal(b1-4)GlcNAc
In short: as §1

[35] = molecular target: Neu5Ac(a2-3)[GalNAc(b1-4)]Gal(b1-4)GlcNAc(b1-3)GalNAc
In short: as §1

[36] = molecular target: Neu5Ac(a2-3)[Neu5Ac(a2-6)]GalNAc
In short: as §1

Neu5Ac(a2-6)Gal = molecular target: Neu5Ac(a2-6)Gal
In short: as §1

[37] = molecular target: Neu5Ac(a2-6)Gal(b1-3)GlcNAc(b1-3)[Gal(b1-4)GlcNAc(b1-6)]Gal(b1-4)Glc
In short: as §1

Neu5Ac(a2-6)Gal(b1-4)Glc = molecular target: Neu5Ac(a2-6)Gal(b1-4)Glc
In short: as §1

[38] = molecular target: Neu5Ac(a2-6)Gal(b1-4)GlcNAc
In short: as §1

[39] = molecular target: Neu5Ac(a2-6)Gal(b1-4)GlcNAc(b1-2)Man(a1-3)Man(b1-4)GlcNAc(b1-4)GlcNAc
In short: as §1

[40] = molecular target: Neu5Ac(a2-6)Gal(b1-4)GlcNAc(b1-2)Man(a1-3)[Gal(b1-4)GlcNAc(b1-2)Man(a1-6)]Man(b1-4)GlcNAc(b1-4)GlcNAc
In short: as §1

B1: Gal 4 (Homo sapiens), Q8K419 (protein)
chain: MAYVPAPGYQPTYNPTLPYKRPIPGGLSVGMSVYIQGMAKENMRRFHVNFAVGQDDGADVAFHFNPRFDGWDKVVFNTMQSGQWGKEEKKKSMPFQKGKHFELVFMVMPEHYKVVVNGNSFYEYGHRLPVQMVTHLQVDGDLELQSINFLGGQPAAAPYPGAMTIPAYPAGSPGYNPPQMNTLPVMTGPPVFNPRVPYVGALQGGLTVRRTIIIKGYVLPTARNFVINFKVGSSGDIALHLNPRIGDSVVRNSFMNGSWGAEERKVAYNPFGPGQFFDLSIRCGMDRFKVFANGQHLFDFSHRFQAFQMVDTLEINGDITLSYVQI
glycan array binding signal (z-score) [1]: -0.198
glycan array binding signal (z-score) [2]: -0.204
glycan array binding signal (z-score) [3]: -0.194
glycan array binding signal (z-score) [4]: -0.216
glycan array binding signal (z-score) (Neu5Ac(a2-3)Gal(b1-4)Glc): -0.18
glycan array binding signal (z-score) [5]: -0.192
glycan array binding signal (z-score) [6]: -0.197
glycan array binding signal (z-score) [7]: -0.2
glycan array binding signal (z-score) [8]: -0.331
glycan array binding signal (z-score) [9]: -0.201
glycan array binding signal (z-score) [10]: -0.571
glycan array binding signal (z-score) [11]: -0.202
glycan array binding signal (z-score) [12]: -0.193
glycan array binding signal (z-score) [13]: -0.19
glycan array binding signal (z-score) [14]: -0.188
glycan array binding signal (z-score) [15]: -0.198
glycan array binding signal (z-score) [16]: -0.205
glycan array binding signal (z-score) [17]: -0.217
glycan array binding signal (z-score) [18]: -0.214
glycan array binding signal (z-score) [19]: -0.183
glycan array binding signal (z-score) [20]: -0.209
glycan array binding signal (z-score) [21]: -0.198
glycan array binding signal (z-score) [22]: -0.204
glycan array binding signal (z-score) [23]: -0.208
glycan array binding signal (z-score) [24]: -0.176
glycan array binding signal (z-score) [25]: -0.198
glycan array binding signal (z-score) [26]: -0.235
glycan array binding signal (z-score) [27]: -0.179
glycan array binding signal (z-score) [28]: -0.124
glycan array binding signal (z-score) [29]: -0.203
glycan array binding signal (z-score) [30]: -0.201
glycan array binding signal (z-score) [31]: -0.207
glycan array binding signal (z-score) (Neu5Ac(a2-3)GalNAc): -0.203
glycan array binding signal (z-score) [32]: -0.204
glycan array binding signal (z-score) [33]: -0.203
glycan array binding signal (z-score) [34]: -0.2
glycan array binding signal (z-score) [35]: -0.147
glycan array binding signal (z-score) [36]: -0.209
glycan array binding signal (z-score) (Neu5Ac(a2-6)Gal): -0.196
glycan array binding signal (z-score) [37]: -0.198
glycan array binding signal (z-score) (Neu5Ac(a2-6)Gal(b1-4)Glc): -0.196
glycan array binding signal (z-score) [38]: -0.202
glycan array binding signal (z-score) [39]: -0.205
glycan array binding signal (z-score) [40]: -0.198
